# From PubChem BioAssay AID588855 (National Center for Advancing Translational Sciences (NCATS), 2011)
# Where “and” joins values, the source holds several entries; their conditions need not be identical. Equal values may be shown once. Screen size: about 410,000 compounds; about 5,000 (1.2%) were called active. Inconclusive means that the source gave no clear call. Such entries were picked first, then a sample of the others. Calls come from the whole dose curve; as a rule, active = well fitted inhibition curve with a large enough effect; inconclusive = small, poorly fitted or top-dose-only effect; inactive = no such curve, though single readings can be large or run the other way. A potency beside an inconclusive call is a rough fit, not a confirmed value.
# Experiment: qHTS for Inhibitors of TGF-b; note: nearly all actives have a fitted effect of over 65% in size
# Conditions: HepG2 CAGA-GFP TGF-b/SMAD3 reporter, GFP fluorescence, 18 h, TGF-beta stimulated, 500 pg/mL final; series mostly up to 46.1 µM; activity, negative = inhibition: at the top concentration
# Outline: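 Smad-responsive CAGA-GFP expression was quantified in HEPG2 cells exposed to compounds and 500 pg/mL final TGF-beta for 18 h at 37 degrees C; unstimulated wells defined full inhibition.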
# % is set by controls: 0 for no effect and ±100 for the full control effect; potency is the fitted concentration of half-maximal effect; tags give direction and shape of the fitted curve.
Compound,Potency,"activity, negative = inhibition"
COc1cc2ccccc2cc1C(=O)N/N=C/c1ccc2c(c1)OCO2,"inconclusive: 10 µM [inhibitor, single point]",
O=C(C[C@@H]1C/C=C\C[C@H](Cc2ccc(F)cc2)C(=O)OCCNC1=O)NCCO,,inactive: -5.41%
O=C(c1ccc(F)cc1)N1CCc2c([nH]c3ccccc23)C1c1ccc(Cl)cc1 (stereo not drawn),"inconclusive: 3.55 µM [inhibitor, full curve]",
COc1ccc(-n2c(C)c([N+](=O)[O-])c3ccc(O)c(CN4CCCCC4)c32)cc1,,inactive: 23.1%
CCOC(=O)c1sc(=S)n(-c2ccccc2Cl)c1SC,"inconclusive: 25.1 µM [inhibitor, single point]",
Cc1ccc(CNC(=O)Cc2ccc(-n3c(=O)[nH]c4ccsc4c3=O)cc2)cc1,"inconclusive: 3.98 µM [inhibitor, full curve, poor fit]",
CCN(CC(=O)Nc1ccc(NC(C)=O)cc1)C(=O)C1(c2ccccc2)CC1,"inconclusive: 35.5 µM [inhibitor, single point]",
O=[N+]([O-])c1ccc(C2CCCC/C2=N/OCc2ccc(F)cc2)c([N+](=O)[O-])c1 (stereo not drawn),"inconclusive: 2.82 µM [inhibitor, partial curve, poor fit]",
Cc1[nH]c2ccccc2c1C(=O)CNc1ccc(Br)cc1,"inconclusive: 20 µM [inhibitor, single point]",
CC1CCCN(C(=O)c2ccc3c(=O)n4nc(Nc5ccccc5)sc4nc3c2)C1 (stereo not drawn),,inactive: -2.64%
O=C(NCc1ccccc1)C1(C(F)(F)F)C/C(=C\Cc2ccccc2)CCCO1 (stereo not drawn),"inconclusive: 11.2 µM [inhibitor, single point]",
COc1cc2c(cc1OC)C(c1cccc(Cl)c1)CC(=O)N2 (stereo not drawn),"inconclusive: 112 nM [inhibitor, full curve, poor fit] and inconclusive: 6.31 µM [inhibitor, single point]",
Cn1nc(-c2ccccc2F)c2cc(C(=O)NCc3ccccc3Cl)sc21,,inactive: -4.86%
O=S(=O)(Nc1nc(-c2ccccc2)cs1)c1cccc(C(F)(F)F)c1,"inconclusive: 35.5 µM [inhibitor, single point]",
CC(OC(=O)c1ccc([N+](=O)[O-])s1)C(=O)NC1CCCCC1C (stereo not drawn),"inconclusive: 0.562 µM [inhibitor, partial curve, poor fit]",
Cc1nc2cc(Nc3nnc(-c4ccccc4)c4ccccc34)ccc2n1C,"inconclusive: 17.8 µM [inhibitor, single point]",
Oc1c(Br)cc(/C=N/Nc2ccc(Cl)nn2)cc1Br,,inactive: 3.65%
CCc1ccc(NC(=O)C2CCN(S(=O)(=O)c3ccc4c(c3)NC(=O)CO4)CC2)cc1,"inconclusive: 25.1 µM [inhibitor, single point]",
Cc1ccc(NNC(N)=S)cc1Cl,"inconclusive: 7.94 µM [inhibitor, partial curve, poor fit]",
CCCN1CCN(CCCNC(=O)c2cc3c(=O)n(CC)c4ccccc4c3s2)CC1,"inconclusive: 35.5 µM [inhibitor, single point]",
CCN(CC)CCN(C(=O)c1ccc(C(=O)c2ccccc2)cc1)c1nc2ccc(OC)cc2s1,,inactive: -8.4%
COc1ccc(C(=O)Nc2ccc(C(=O)c3ccccc3)cc2)cc1,"inconclusive: 1.58 µM [inhibitor, partial curve, poor fit]",
CCOc1cccc(C(=O)Nc2ccc(-c3nc4ncccc4o3)cc2C)c1,"inconclusive: 7.94 µM [inhibitor, partial curve, poor fit]",

Compound,Potency,"activity, negative = inhibition"
CCCCN(CCCNC(=O)c1cc(Nc2cccc(SC)c2)nc2ccccc12)Cc1ccccc1,active: 15.8 µM,
O=C(CCNc1ccc(F)cc1)c1cc2ccccc2o1,"inconclusive: 35.5 µM [inhibitor, single point]",
O=S(=O)(Cc1ccccc1)NCc1cccnc1,"inconclusive: 17.8 µM [inhibitor, single point]",
COc1cccc(CNc2nc3cc(-c4ccc(C)cc4)sc3c(=O)n2C)c1OC,active: 10 µM,
CN(C)c1ncnc2c1ncn2C1OC(CO)C(O)C1O (stereo not drawn),active: 0.631 µM,
Cc1ccc(NC(=O)c2ncn(CCCN3CCN(c4ncccn4)CC3)n2)cc1C,"inconclusive: 17.8 µM [inhibitor, single point]",
Cc1nccn1CC(O)COc1ccc(Cl)cc1Cl (stereo not drawn),,inactive: -7.66%
COc1ccc(NC(=O)Nc2nnc(-c3cccs3)s2)cc1,,inactive: 5.25%
COc1ccc(C(=O)NN(C)c2nc(C(F)(F)F)nc3ccccc23)cc1,"inconclusive: 0.891 µM [inhibitor, full curve]",
Cc1ccc(-n2c(/C=C/c3c(C)n(C)c4ccccc34)nc3ccccc3c2=O)cc1,,inactive: -0.153%
COc1cccc(NC(=O)CN2CCN(C(=O)c3ccco3)CC2)c1,"inconclusive: 6.31 µM [inhibitor, single point]",
O=c1cc(CN2CCN(c3ccccc3F)CC2)c2cc3c(cc2o1)CCCC3,"inconclusive: 35.5 µM [inhibitor, single point]",
CCc1ccccc1NC(=O)CC1S/C(=N\c2nccs2)N(CC)C1=O (stereo not drawn),,inactive: -13.3%
CCOC(=O)c1ccc(NC(=O)COc2ccc(CNCCO)cc2OCC)cc1,"inconclusive: 3.16 µM [inhibitor, single point]",
COc1ccc(OC)c(-c2nnc3n2N=C(c2ccc(OC)c(OC4CCOC4)c2)CS3)c1 (stereo not drawn),"inconclusive: 0.355 µM [inhibitor, full curve, poor fit]",
CN(C)CCOc1ccc(Cl)cc1C(C)(C)C,"inconclusive: 6.31 µM [inhibitor, single point]",
CCOC(=O)N1CCc2c(sc3c2C(=O)NC(c2ccc(N(C)C)cc2)N3)C1 (stereo not drawn),"inconclusive: 3.98 µM [inhibitor, full curve, poor fit]",
Cc1cccc(CCNC(=O)C2CCC(=O)N(Cc3ccccc3F)C2)n1 (stereo not drawn),"inconclusive: 0.316 µM [inhibitor, full curve, poor fit]",
COc1ccc2cc(C(=O)C3CCCN(C(=O)c4cnccn4)C3)ccc2c1 (stereo not drawn),,inactive: -8.3%
O=c1c2ccccc2nc2n1CCc1ccc(Br)cc1-2,,inactive: -24.6%
O=C1Nc2ccccc2Oc2cc([N+](=O)[O-])cc(Oc3ccccc3)c21,"inconclusive: 25.1 µM [inhibitor, single point]",
Cc1ccc(-n2c(SCc3ccccc3F)nc3[nH]ncc3c2=O)cc1Cl,"inconclusive: 35.5 µM [inhibitor, single point]",
COc1ccc(S(=O)(=O)N2CCN(c3ccccc3OC)CC2)cc1C(=O)N1CCCCC1,,inactive: -19.8%

Compound,Potency,"activity, negative = inhibition"
S=C(NCc1ccco1)N1CCN(Cc2ccc(Cl)cc2Cl)CC1,"inconclusive: 12.6 µM [inhibitor, single point]",
Cc1nnc(-c2cnn(-c3ccccc3)c2N)n1Cc1ccncc1,"inconclusive: 35.5 µM [inhibitor, partial curve, poor fit]",
COCCNC(=O)COc1ccc(C)cc1C(=O)c1cc(C#N)c(=O)n(C2CC2)c1,"inconclusive: 3.98 µM [inhibitor, single point]",
Cn1c2ccccc2c(=O)c2ccc(C#CC3(O)CCCCC3)cc21,"inconclusive: 28.2 µM [inhibitor, single point]",
CCCS(=O)(=O)NC(=O)C1(C)CCN(C(=O)c2cc(OC)c(OC)c(OC)c2)C1 (stereo not drawn),"inconclusive: 35.5 µM [inhibitor, single point]",
Cc1ccc(SCCNC(=O)c2ccc(C)c(S(=O)(=O)Nc3ccccc3C)c2)cc1,"inconclusive: 11.2 µM [inhibitor, partial curve]",
Cc1cc(Cl)ccc1OCC(=O)N[C@@H](Cc1ccccc1)c1nc2ccccc2[nH]1,"inconclusive: 35.5 µM [inhibitor, partial curve, poor fit]",
S=C(Nc1ccc2nsnc2c1)N1CCCC1,,inactive: 7.88%
Cc1onc(-c2ccccc2Cl)c1C(=O)OCC(=O)c1ccc2c(c1)OCCO2,,inactive: -20.9%
Cc1ccc2oc(=O)c3cc(C(=O)NCCCOC(C)C)sc3c2c1,,inactive: -23.3%
COc1ccc(NS(=O)(=O)c2ccc(Cl)c(N)c2)cc1Br,"inconclusive: 35.5 µM [inhibitor, single point]",
O=[N+]([O-])c1ccc(COc2cccc(CNc3ccc(F)cc3)c2)cc1,"inconclusive: 22.4 µM [inhibitor, single point]",
CCN(CC)c1ccc(/C=N/N2CCN(Cc3ccc(C)cc3)CC2)c(O)c1,,inactive: 25.9%
COc1ccc(NC(=O)c2cc(-c3cc(C)c(C)cc3O)n[nH]2)c(OC)c1,,inactive: -21.5%
CSCCC(C(=O)Nc1c(C)cccc1C)N1CCC(Cc2ccccc2)CC1 (stereo not drawn),"inconclusive: 20 µM [inhibitor, partial curve, poor fit]",
COC(=O)C1=NN(C(=O)c2ccc(C)cc2)C(O)(c2ccc(Cl)cc2)C1 (stereo not drawn),"inconclusive: 14.1 µM [inhibitor, single point]",
CCc1ccc(C(=O)NNc2cc(Cl)cc(Cl)c2)cc1,"inconclusive: 12.6 µM [inhibitor, single point]",
COc1ccc(S(=O)(=O)N2CCOC23CCN(S(=O)(=O)c2ccc(F)cc2C)CC3)cc1,,inactive: -10.7%
CC(C1CC1)N(Cc1ccccc1)C(=S)Nc1cccc(C(F)(F)F)c1 (stereo not drawn),"inconclusive: 35.5 µM [inhibitor, single point]",
Cc1ccc(S(=O)(=O)N2CCOCC2)cc1C(=O)Nc1cc(S(=O)(=O)N2CCCCC2)ccc1O,"inconclusive: 15.8 µM [inhibitor, single point]",
O=C(NC1CC1)c1c(O)c2ccccc2[nH]c1=O,,inactive: -14.7%
CC(C)(C)C#CCn1c(/C=[N+](\[O-])C2CCCCC2)nc2ccccc21,"inconclusive: 31.6 µM [inhibitor, single point]",
